# Test results reported in the antibiotic and cytotoxicity screens of Wong et al. (2023).
# This is one part of the list.
# Key:
# HSkMC = human skeletal muscle cells; test: cytotoxicity call (relative viability < 0.9); conditions: 10 µM
# HepG2 = test: cytotoxicity call (relative viability < 0.9); conditions: 10 µM
# S. aureus RN4220 = test: growth inhibition call (relative growth <= 0.2); conditions: 50 µM
SMILES,cytotoxicity call (HSkMC),cytotoxicity call (HepG2),growth inhibition call (S. aureus RN4220)
COc1cccc(S(=O)(=O)Nc2ccc3c(c2)[C@H]2C[C@@H](CC(=O)NCc4cccc(F)c4)O[C@H](CO)[C@H]2O3)c1,inactive,inactive,inactive
Cc1noc(C)c1NC(=O)N(C)C[C@H]1OCCCC[C@@H](C)Oc2ccc(NC(=O)Nc3cccc4ccccc34)cc2C(=O)N([C@@H](C)CO)C[C@H]1C,inactive,inactive,inactive
CO[C@@H]1CN(C)C(=O)c2cc(NC(=O)Nc3cccc(F)c3)ccc2OC[C@@H](C)N(C(=O)Nc2cccc(F)c2)C[C@H]1C,inactive,inactive,inactive
Cn1c(=O)c2c(ncn2C)n(C)c1=O,inactive,inactive,inactive
CC(C)NC(=O)Nc1ccc2c(c1)C(=O)N([C@@H](C)CO)C[C@@H](C)[C@@H](CN(C)C(=O)Nc1ccccc1)OCCCC[C@H](C)O2,inactive,inactive,inactive
C=C[C@]1(C)C=C2CC[C@H]3C(C)(C)[C@H](O[C@@H]4O[C@@H](CO)[C@H](O)[C@H]4O)CC[C@@]3(C)[C@H]2C[C@@H]1O[C@@H]1O[C@H](CO)[C@@H](OC)[C@H](O)[C@H]1O,inactive,inactive,inactive
Cc1noc(C)c1NC(=O)N(C)C[C@H]1Oc2c(NC(=O)c3cnccn3)cccc2C(=O)N([C@@H](C)CO)C[C@@H]1C,inactive,inactive,inactive
C=CCC[C@H](Cc1ccc(F)cc1)C(=O)OC[C@@H](Cc1c[nH]c2ccccc12)NC(=O)[C@@H](CC=C)CC(=O)N(CCO)Cc1ccccc1,inactive,active,inactive
Cc1noc(C)c1NC(=O)N(C)C[C@H]1OCCCC[C@@H](C)Oc2ccc(NS(=O)(=O)c3ccccc3)cc2C(=O)N([C@H](C)CO)C[C@@H]1C,inactive,inactive,inactive
C[C@@H]1CN([C@H](C)CO)S(=O)(=O)c2ccc(C3=CCCC3)cc2O[C@H]1CN(C)S(=O)(=O)c1ccc(F)cc1,inactive,inactive,inactive
O=C(O)Cn1cnc(C2CC2)cc1=O,inactive,inactive,inactive
Cc1noc(C)c1NC(=O)Nc1ccc2c(c1)C(=O)N([C@H](C)CO)C[C@@H](C)[C@H](CN(C)Cc1ccc3c(c1)OCO3)OCCCC[C@@H](C)O2,inactive,inactive,inactive
C=CCNC(=O)[C@H]1[C@@H]2C(=O)O[C@@H](c3ccccc3)[C@@H](c3ccccc3)N2[C@@H](c2ccccc2OCCO)[C@]12C(=O)Nc1ccc(C#CC3(O)CCCCCC3)cc12,inactive,inactive,inactive
